Measurements taken from PubChem BioAssay AID904 (National Center for Advancing Translational Sciences (NCATS), 2007).
Hit rate of the full screen: of about 55,000 compounds, about 530 (0.96%) were called active. This list was built around the results that the source calls inconclusive (neither active nor inactive); the mix of calls is not that of the screen. Calls follow the shape of the dose curve; as a rule, active = well fitted cell-killing curve with a large enough effect; inconclusive = small, poorly fitted or top-dose-only effect; inactive = no such curve, though single readings can be large or run the other way. A potency beside an inconclusive call is a rough fit, not a confirmed value.

Experiment: qHTS Screen for Compounds that Selectively Target Cancer Cells with p53 Mutations: Cytotoxicity of p53 Null Cells at the Nonpermissive Temperature; also: nearly all actives have a fitted effect of over 50% in size
Conditions: H1299 p53-null (neo) cells, 39C, ATPlite viability, 24 h; series mostly up to 46.1 µM
Procedure, shortened: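 Concentration-response (up to 46 uM) was run for 24 h at the nonpermissive 39C on H1299-p53A138V or H1299-neo cells. ATP content was measured with ATPlite luminescence. AC50 values were Hill-modeled after normalizing between DMSO and 100 uM tamoxifen killing.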
Potency is read from the fitted curve at half-maximal effect; tags tell the direction and shape of the fitted curve.

SMILES | Potency
CC1CCN(CC(=O)N2CCCc3c2c(=O)oc2ccc(OCc4ccccc4)cc32)CC1 | inconclusive: 35.5 µM [cytotoxic, single point]
Cc1ccc(CCNC(=O)c2cc3c(s2)-c2ccccc2OC3)cc1 | inactive
CCOC(=O)c1ccccc1NC(=O)CN1CCCN(Cc2cc(C)ccc2C)S1(=O)=O | inconclusive: 3.16 µM [cytotoxic, single point]
Cc1ccc(-n2nnc(-c3nc(-c4cccs4)no3)c2N)cc1C | inconclusive: 3.98 µM [cytotoxic, single point]
COc1ccc(S(=O)Cc2ccc(C(=O)N3CCN(c4cccc(C)c4C)CC3)o2)cc1 (centres undefined) | inactive
Cc1c(Cl)cccc1NC(=O)Cn1c(=O)n(Cc2ccco2)c(=O)c2sc3ccccc3c21 | inactive
Cc1ccccc1NC(=O)c1ccc2[nH]c(C)c(C)c2c1 | inconclusive: 11.2 µM [cytotoxic, partial curve]
CCC(CC)c1nn2c(=O)cc(COc3ccc(NC(=O)c4ccccc4C)cc3)nc2s1 | inconclusive: 0.631 µM [cytotoxic, full curve]
CCOc1cccc(C2c3[nH]c4ccccc4c3CCN2C(=O)CSc2ccccc2)c1 (centres undefined) | inconclusive: 31.6 µM [cytotoxic, partial curve, poor fit]
COc1ccc(-c2cc(C(=O)Nc3cccnc3)no2)cc1OC | inconclusive: 15.8 µM [cytotoxic, single point]
CCCC(=O)N1CCN(c2nc3ccc(F)cc3s2)CC1 | inconclusive: 14.1 µM [cytotoxic, single point]
COc1ccc(OC)c(NC(=O)c2ccc3c(Cl)c4c(nc3c2)CCCC4)c1 | inconclusive: 0.1 µM [cytotoxic, partial curve]
Nc1nn(-c2ccccc2)nc1C(=O)OCc1c(F)cccc1Cl | inactive
CCCn1c(/C=C/c2ccccc2)nc2ccccc21 | inconclusive: 11.2 µM [cytotoxic, single point]
Cc1ccc(NC(=O)C(=O)NCC(c2cccnc2)N2CCN(C)CC2)cc1 (centres undefined) | inconclusive: 25.1 µM [cytotoxic, single point]
CCCN(CCC)C(=O)c1c[nH]c2ccc(S(=O)(=O)N(C)c3ccc(OCC)cc3)cc2c1=O | inactive
O=C(Nc1ccc(OC(F)(F)F)cc1)C1CCCN(S(=O)(=O)c2ccc(Br)s2)C1 (centres undefined) | inconclusive: 22.4 µM [cytotoxic, single point]
Cc1cc(OC(C)C(=O)N2CCN(CCc3ccccn3)CC2)ccc1Cl (centres undefined) | inconclusive: 1 µM [cytotoxic, full curve]
CCC(CC)C(=O)Nc1nnc(SCc2cc(=O)c3ccccc3[nH]2)s1 | inactive
Fc1cccc(NCc2ccccc2-c2nnc(-c3ccccc3Cl)o2)c1 | inconclusive: 2 µM [cytotoxic, partial curve, poor fit]
Cc1ccnc(NC(c2ccccc2F)c2ccc3cccnc3c2O)c1 (centres undefined) | inconclusive: 5.62 µM [cytotoxic, full curve]
N#Cc1ccc(-c2cccs2)nc1SCc1ccc(Cl)cc1Cl | inconclusive: 0.316 µM [cytotoxic, full curve, poor fit]

SMILES | Potency
Cc1cc(C)c(NC(=O)Cn2c(=O)n(CCCCC(=O)NCc3ccccc3Cl)c(=O)c3ccccc32)c(C)c1 | inconclusive: 25.1 µM [cytotoxic, single point]
Cc1nc2sc(C(=O)NCc3ccc(Cl)cc3)c(NC(=O)c3ccccc3)c2c(C)c1C | inconclusive: 15.8 µM [cytotoxic, single point]
O=C(Nc1nnc(S(=O)(=O)N2CCCc3ccccc32)s1)c1ccccc1Br | inconclusive: 0.891 µM [cytotoxic, partial curve, poor fit]
COc1ccc(OC)c(NC(=O)c2csnn2)c1 | inconclusive: 0.631 µM [cytotoxic, single point]
CC1=C(C(=O)Nc2ccc(C)cc2C)C(c2sccc2C)n2ncnc2N1 (centres undefined) | inconclusive: 1.58 µM [cytotoxic, partial curve]
CCOc1cc(CNc2ccc(O)cc2)cc(Br)c1OCc1ccccc1 | inconclusive: 31.6 µM [cytotoxic, single point]
O=C(Nc1ccc(Cl)cc1)C1CCN(c2nc3ccccc3n3cccc23)CC1 | inconclusive: 11.2 µM [cytotoxic, partial curve]
CCOc1ccc(C2CC(=O)n3nc(-c4ccc(C)cc4)nc3S2)cc1OC (centres undefined) | inactive
Cc1ccc(C(=O)N2CCc3cc(CNS(=O)(=O)c4ccc(Cl)s4)ccc32)cc1 | inconclusive: 0.005 µM [cytotoxic, full curve, poor fit]
Cc1ccc(-c2cc(C(=O)NCc3cnn(C)c3C)c3cc(Br)ccc3n2)cc1 | inconclusive: 12.6 µM [cytotoxic, partial curve]
Cc1ccc(NC2=C(c3ccc(C(F)(F)F)cc3)C(=O)c3ccccc32)cc1C | inconclusive: 31.6 µM [cytotoxic, single point]
CCc1c(C)sc2c1CCN(Cc1cccc(F)c1)C2c1ccccc1 (centres undefined) | inconclusive: 7.08 µM [cytotoxic, partial curve]
CCc1ccc(N=C2NC(=O)CC(C(=O)Nc3ccc(OC)cc3)S2)cc1 (centres undefined) | inactive
CC(C)c1ccc(NC(=O)c2cc3c(s2)-c2ccccc2SC3)cc1 | inconclusive: 15.8 µM [cytotoxic, single point]
CCOC(=O)c1c(C)[nH]c(CCC(=O)NCCCN2CCN(c3ccc(F)cc3)CC2)c1C | inactive
Cc1ccc(O)c(C(CC(=O)NCC2(c3ccccc3)CCCC2)c2ccccc2)c1 (centres undefined) | inconclusive: 31.6 µM [cytotoxic, single point]
CCOc1ccc(CNC(=O)C2CCN(c3nnc(-n4cccc4CNc4ccc(C)cc4)s3)CC2)cc1OC | inactive
CC(=O)N1CCOc2cc(S(=O)(=O)Nc3cccc(C(F)(F)F)c3)c(Cl)cc21 | inconclusive: 12.6 µM [cytotoxic, partial curve, poor fit]
COc1ccc(S(=O)(=O)N2CCN(c3ccccc3F)CC2)cc1-c1noc(C)n1 | inconclusive: 2 µM [cytotoxic, partial curve, poor fit]
CCOC(=O)CSc1nc2ccc(NC(=O)c3ccc(C)cc3)cc2s1 | inconclusive: 10 µM [cytotoxic, partial curve]
CCOC(=O)c1ccc(NC(=O)CCCc2nc(-c3ccccc3Cl)no2)cc1 | inconclusive: 35.5 µM [cytotoxic, single point]
Cc1cc(C)cc(C(=O)Nc2ccc(-c3nc4ncccc4o3)cc2)c1 | inconclusive: 20 µM [cytotoxic, single point]

SMILES | Potency
COc1ccc(NC(=O)CCc2c(C)nn(-c3ccc(N4CCCC4)nn3)c2C)cc1Cl | inconclusive: 7.94 µM [cytotoxic, partial curve]
Cc1ccc(NC(=O)N2CCc3ccccc32)cc1 | active: 5.01 µM
CN1CCN(C2=Cc3ccccc3Sc3cc(F)c(Cl)cc32)CC1 | inconclusive: 15.8 µM [cytotoxic, single point]
Cc1ccc(NC(=O)n2ncc3c(C)cccc32)c(C)c1 | inactive
CCCCN1C(=O)C(O)(CC(=O)c2ccc(CC)cc2)c2cc(Br)ccc21 (centres undefined) | inconclusive: 14.1 µM [cytotoxic, partial curve]
COc1cccc(C(=O)Nc2nc(-c3nnn(-c4ccccc4C(F)(F)F)c3C)ns2)c1 | inconclusive: 12.6 µM [cytotoxic, single point]
COc1ccc(-c2nc3ccccc3n2Cc2ccccc2)cc1 | inconclusive: 25.1 µM [cytotoxic, single point]
CC(C)(C)c1ccc(C(=O)NCC(c2ccco2)S(=O)(=O)c2ccccc2)cc1 (centres undefined) | inactive
CCN(CC)S(=O)(=O)c1ccc2c(c1)N(CC(=O)Nc1ccc(Cl)cc1)C(=O)C1CCCN21 (centres undefined) | inconclusive: 31.6 µM [cytotoxic, single point]
COc1ccc(C(=O)Oc2c(Sc3ccccc3)c(C)nn2-c2ccccc2)c(OC)c1 | inconclusive: 15.8 µM [cytotoxic, single point]
COc1ccc(NC(=O)Cn2ccn(-c3ccc(F)c(F)c3)c(=O)c2=O)cc1Cl | inconclusive: 12.6 µM [cytotoxic, single point]
O=C1CC(c2ccccc2)Sc2ccccc2N1Cc1ccccc1F (centres undefined) | inconclusive: 25.1 µM [cytotoxic, single point]
CC(C)c1ccc(OCC(=O)Nc2ccc(S(=O)(=O)Nc3ncccn3)cc2)cc1 | inactive
COc1ccccc1Nc1nc2c(S(=O)(=O)c3ccc(C(C)C)cc3)nnn2c2ccsc12 | inconclusive: 0.158 µM [cytotoxic, full curve]
CC(=O)NC1=C(NC2CCS(=O)(=O)C2)C(=O)c2ccccc2C1=O (centres undefined) | inconclusive: 31.6 µM [cytotoxic, single point]
Cc1ccc(CNc2ccc(-c3nc(-c4cccnc4)no3)cc2[N+](=O)[O-])cc1 | inconclusive: 5.01 µM [cytotoxic, full curve, poor fit]
CCOC(=O)c1[nH]c2ccccc2c1NC(=O)c1cc(Cl)ccc1Cl | inconclusive: 2.51 µM [cytotoxic, partial curve]
COCCCn1c(SCc2ccccc2F)nc2c(sc3ccccc32)c1=O | inactive
Cc1cccc(-c2cc(NC(=O)c3ccccc3C)n(-c3ccccc3)n2)c1 | inconclusive: 2.51 µM [cytotoxic, full curve]
CCN(c1cccc(C)c1)C(CNS(=O)(=O)c1ccccc1)c1ccccc1 (centres undefined) | inconclusive: 10 µM [cytotoxic, partial curve]
